Measured values: publication PMC4336329 (PLoS ONE, 2015)
Among all 310,000 compounds or so, about 14,000 (4.5%) showed an effect of 50% or more. The effect is printed as a negative number. The list shows a part of the results. Where a SMILES comes first, the peptide text is derived from it. The star is where a group is joined. Cbz = O=C(OCc1ccccc1)*

target: human ether-à-go-go-related gene (hERG) potassium channel (human, UniProt Q12809); experiment: primary screen, population patch clamp on CHO cells stably expressing hERG
Sequence (Q12809 whole entry, looked up): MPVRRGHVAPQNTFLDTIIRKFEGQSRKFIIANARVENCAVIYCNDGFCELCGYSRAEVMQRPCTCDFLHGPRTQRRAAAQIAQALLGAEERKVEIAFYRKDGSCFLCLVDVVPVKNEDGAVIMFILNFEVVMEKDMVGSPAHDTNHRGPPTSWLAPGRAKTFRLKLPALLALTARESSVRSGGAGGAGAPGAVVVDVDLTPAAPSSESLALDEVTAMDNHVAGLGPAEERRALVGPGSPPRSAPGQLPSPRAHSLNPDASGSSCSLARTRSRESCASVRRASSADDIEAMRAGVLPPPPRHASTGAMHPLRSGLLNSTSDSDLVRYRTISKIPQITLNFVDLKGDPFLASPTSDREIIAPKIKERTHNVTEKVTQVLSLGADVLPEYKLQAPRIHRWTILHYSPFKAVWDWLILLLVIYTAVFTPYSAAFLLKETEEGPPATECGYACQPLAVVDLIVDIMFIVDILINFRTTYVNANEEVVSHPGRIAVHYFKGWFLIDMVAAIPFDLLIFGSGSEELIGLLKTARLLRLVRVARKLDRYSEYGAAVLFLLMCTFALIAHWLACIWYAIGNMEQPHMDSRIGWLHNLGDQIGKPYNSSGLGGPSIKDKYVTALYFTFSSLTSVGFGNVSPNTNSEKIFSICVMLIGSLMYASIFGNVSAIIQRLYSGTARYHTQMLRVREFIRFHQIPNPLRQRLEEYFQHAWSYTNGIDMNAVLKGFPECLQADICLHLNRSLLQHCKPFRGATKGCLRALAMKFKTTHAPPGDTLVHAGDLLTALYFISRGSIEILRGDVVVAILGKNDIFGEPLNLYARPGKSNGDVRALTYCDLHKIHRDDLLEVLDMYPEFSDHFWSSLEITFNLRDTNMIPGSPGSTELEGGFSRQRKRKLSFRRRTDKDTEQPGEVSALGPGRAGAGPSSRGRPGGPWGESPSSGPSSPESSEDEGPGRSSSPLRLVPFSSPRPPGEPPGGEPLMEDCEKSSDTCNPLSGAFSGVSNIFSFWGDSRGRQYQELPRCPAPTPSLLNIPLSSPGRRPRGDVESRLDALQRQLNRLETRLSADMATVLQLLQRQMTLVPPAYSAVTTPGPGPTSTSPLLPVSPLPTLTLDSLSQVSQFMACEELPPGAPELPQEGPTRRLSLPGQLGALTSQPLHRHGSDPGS
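Also: peak tail current of the secondary pulse compared with the same well before compound.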

Structure (SMILES) | hERG current change (%, negative = inhibition) at 10uM
N#Cc1ccc(OCC(=O)Nc2nc(-c3cccnc3)cs2)cc1 | 2.27%
C=CCC1(C#N)C(SC)=NC2=C(C(=O)CC(C)(C)C2)C1c1ccc(Br)cc1 (stereo not drawn) | 7.72%
CCOC(=O)C1CCCN(Cc2cc(=O)oc3cc(C)c(C)cc23)C1 (stereo not drawn) | -19.3%
COC(=O)c1ccc(Oc2ccc(C(F)(F)F)cn2)cc1 | 11.9%
Cc1ccc(-c2nc(CNC(=O)c3cc(C)on3)cs2)cc1 | 8.32%
CNC(=O)COC(=O)c1ccccc1Nc1ccccc1 | 0.541%
COc1ccc(OC)c(NC(=O)CCNS(=O)(=O)c2ccc3[nH]c(=O)oc3c2)c1 | -0.0171%
Cn1c(SCC(=O)NCCc2ccccc2)nnc1-c1ccco1 | -4.63%
COc1ccc(NC(=O)CSc2nnc(Cc3cccs3)n2-c2ccc(C)cc2)cc1 | -20.6%
Cc1noc(C)c1CSc1nc2ccccc2s1 | -10.1%
O=C(Nc1ccc(N2CCN(C(=O)c3cccs3)CC2)cc1)c1ccc([N+](=O)[O-])o1 | -25.5%
O=C(O)CCCn1cc(NC(=O)COc2ccccc2)cn1 | 6.47%
CCCCNC(=O)/C=C/c1cccs1 | 34.7%
CCOc1ccc(CCNC(=O)C2CCCN(S(C)(=O)=O)C2)cc1OCC (stereo not drawn) | 7.79%
Cc1nc2ccccc2c(=O)n1NC(=O)C1CCC(C(C)(C)C)CC1 (stereo not drawn) | 1.82%
COc1ccc(NC(=O)C2CCN(S(=O)(=O)c3ccc(C)cc3)CC2)cc1OC | -21.3%
COc1ccc(NC(=O)C23CC4CC(C2)CC(n2cnc(Br)n2)(C4)C3)cc1OC | -2.41%
CCOC(=O)C1(C)C=C(Nc2ccc(C)cc2)C(=O)N1c1ccc(C)cc1 (stereo not drawn) | 28.5%
COc1cccc(SCC2(O)CCN(C(=O)c3ccc(Cl)cc3)CC2)c1 | -69%
C=CCn1c(C)cc(C(=O)CSc2nc3ccccc3o2)c1C | 18%
O=C(c1cccc(C(F)(F)F)c1)C1CCCN(C(=O)CN2CCOC2=O)C1 (stereo not drawn) | -4.08%
O=C(c1ccc2c(c1)OCO2)C1CCCN(CC2CCCCC2)C1 (stereo not drawn) | -71.8%
O=C(c1ccc(NS(=O)(=O)c2ccc3c(c2)OCCO3)cc1)N1CCCCC1 | -2.47%

Structure (SMILES) | hERG current change (%, negative = inhibition) at 10uM
CCc1ccc(OCc2ccc(C(=O)OC)o2)cc1 | 9.41%
COc1ccc(NC(=O)CCSc2nnc(C)s2)cc1 | 20.4%
CCOc1ccc(CNCc2ccc(C(=O)O)cc2)cc1OC.Cl | 15.1%
C=CCNCCCCOc1ccc(C)cc1[N+](=O)[O-] | -7.31%
CC(NC(=O)NC1CCCCC1)C(c1cccs1)N1CCN(c2ccccc2)CC1 (stereo not drawn) | -48.6%
COC(=O)CCCC1=CC2=CC(=O)C(C)(OC(=O)c3cccs3)C(=O)C2=CO1 (stereo not drawn) | 11.2%
CCCNC(=O)/C=C/c1ccc(C(C)C)cc1 | -10.1%
N=C1/C(=C\c2ccc(-c3cccc(C(=O)O)c3)o2)C(=O)N=C2SC=C(c3ccccc3)N12 | 0.469%
CC1CCN(C(=O)CCNS(=O)(=O)c2ccccc2)CC1 | -1.37%
Cc1cc(C)nc(/N=C(\N)Nc2cccc([N+](=O)[O-])c2)n1 | -28.7%
COc1ccccc1N(C)S(=O)(=O)c1ccc(C(=O)Nc2nc(C)c(C(C)=O)s2)cc1 | 11.6%
CC(C)CCN1C(Nc2ccccc2)=NC[C@@H]1C | -9.63%
CCOc1ccccc1OCCCC(=O)N1CCN(S(=O)(=O)c2ccc(C)cc2C)CC1 | -17.7%
COCCn1c(SCC(=O)Nc2nnc(C)s2)nnc1-c1cc2ccccc2cc1O | -16.9%
Cc1cc2nn(-c3cccc4ccccc34)nc2cc1N | 13%
COc1ccc(S(=O)(=O)N2CCN(C3CC4CCC3C4)CC2)cc1.O=C(O)C(=O)O (stereo not drawn) | 3.43%
CCOc1cccc(N2C(=O)CC(NNC(=O)c3ccc(Br)o3)C2=O)c1 (stereo not drawn) | 4.35%
CCC1(C)Cc2c(sc3nnn(CC(=O)Nc4ccccc4)c(=O)c23)CO1 (stereo not drawn) | -27.3%
CN(C)CCNc1ccc(-c2nn(C)c(=O)c3ccccc23)cc1[N+](=O)[O-] | -1.47%
CO/N=C(/CNC(=O)c1ccc(F)cc1)c1ccc(Cl)cc1 | 3.49%
Nc1c(-c2ccccc2)cnn1-c1ccccc1 | 12%
Cc1cc(C(=O)N2CCN(S(C)(=O)=O)CC2)cs1 | 13%
COc1ccc(Cl)cc1S(=O)(=O)Nc1ccc2c(c1)n(C)c(=O)n2C | 1.45%

Structure (SMILES) | hERG current change (%, negative = inhibition) at 10uM
Oc1ccccc1-c1nc(NC2CCCC2)c2ccccc2n1 | 17.8%
N#C/C=C/N1CCN(C(=O)c2ccco2)CC1 | 5.33%
CC(=O)Oc1ccc(/C=N/NC(=S)Nc2ccccc2)cc1 | 1.99%
Br.CCCN(CCC)[C@@H]1CCc2cccc(O)c2C1 | -34.4%
COC(=O)C1(C(=O)OC)Sc2ccccc2C1=O | 5.35%
S=c1[nH]nc(COc2cccc(Cl)c2)n1Cc1ccccc1 | 34.4%
CCOc1ccc(C(=O)NC(=S)Nc2ccc(NC(=O)CC)cc2)cc1[N+](=O)[O-] | 2.77%
CCN(CC(=O)NCc1ccc(Cl)cc1)C(=O)c1cc2ccccc2o1 | -32.2%
CC(C)CC(NC(=O)C1CCCN1C(=O)CNC(=O)OCc1ccccc1)C(=O)O (stereo not drawn) (Cbz-Gly-Pro-Leu-OH; configuration not given here) | 20.3%
CN(C1CCCCC1)S(=O)(=O)c1ccc(NC(=S)NC(=O)c2cccs2)cc1 | 12.6%
Cc1ccc(Cl)cc1NC(=O)[C@@H]1CCC(=O)N1C1OC(=O)c2ccccc21 (stereo partly drawn) | 11.1%
COCCn1c(CCC(=O)O)ccc1-c1cccs1 | 15.5%
CCCC(=O)Nc1cc(C(=O)O)ccc1Sc1ccccc1 | 36.6%
COc1cc(/C=C/C(=O)O)cc(OC)c1O | 2.08%
Oc1ccc(/C=N/NP(=S)(c2ccccc2)c2ccccc2)cc1 | -3.89%
O=C(NC1CCCCC1)c1cc([N+](=O)[O-])ccc1N1CCOCC1 | -13.8%
O=C(COc1ccccc1)N1CCc2ccccc21 | 0.422%
O=C(CN(Cc1ccco1)C(=O)c1cccc(Cl)c1)Nc1c(Cl)cc(Cl)cc1Cl | 0.756%
CC(C)CCN(C)C1CCN(S(=O)(=O)c2cccc(C(F)(F)F)c2)CC1.Cl | -36.4%
CCOc1ccc(CCN2CN(CC)CNC2=S)cc1OCC | -0.457%
CC(C)CC(=O)N(c1nnc(-c2cccnc2)s1)C1CCCC1 | 3.24%
COc1cccc(C(=O)NCCS(=O)(=O)N2CCOCC2)c1 | -8.53%
Cc1ccc(NC(=O)CC(=O)Nc2ccc(C)c(C)c2)cc1C | 11.7%

Structure (SMILES) | hERG current change (%, negative = inhibition) at 10uM
CCOC(=O)c1ccc(N=Cc2nc3ccccc3n2C)cc1 | 7.61%
COc1ccccc1NC(=O)CCCNC(=O)Cn1cnc2sc(C)c(C)c2c1=O | 10.2%
COc1ccccc1NC(=O)CSc1nnc(CCNC(=O)c2ccc(C)cc2)n1C | -3.75%
CCc1ccc2[nH]cc(C(=O)OCCOC)c(=O)c2c1 | 4.42%
O=C(O/N=C\c1ccc(N2CCCCC2)c([N+](=O)[O-])c1)c1cccc(C(F)(F)F)c1 | 5.92%
Cc1cccnc1NC(=O)Nc1ccc(F)cc1 | -0.931%
CC(Nc1ccc(Cl)c(Cl)c1)C(=O)NN (stereo not drawn) | 4.26%
COc1ccc(/C=N/NC(=O)c2c(-c3ccccc3)noc2C)cc1[N+](=O)[O-] | -23.8%
Cl.NS(=O)(=O)c1ccc(CCNCc2cc(Br)ccc2OCc2ccccc2)cc1 | -71.8%
Cc1ccn2cc(CNS(=O)(=O)c3cccs3)nc2c1 | -30.4%
CCOC(=O)C1(CC2CCCCO2)CCN(S(=O)(=O)c2cccc(F)c2)CC1 (stereo not drawn) | 29.8%
O=C(Cc1coc2ccc3ccccc3c12)NC1CCCc2ccccc21 (stereo not drawn) | 5.99%
O=C(Nc1ccncc1)c1ccccc1Cl | 18%
CCNC1=C(Cl)C(=O)c2ccccc2C1=O | 9.46%
Cc1ccccc1NS(=O)(=O)c1cc(C(=O)Nc2ccccc2-c2ccccc2)ccc1Cl | -5.96%
O=C(N/N=C/c1cccc(OCc2ccccc2)c1)c1ccc(Br)o1 | 5.73%
CCS(=O)(=O)c1ccc2oc(SCC(=O)N3CCCCC3)nc2c1 | -1.98%
COc1ccnc2c1c(=O)n(Cc1ccc(Cl)cc1)c(=O)n2C | 17.5%
C/C(N)=C(/C#N)C(=O)COC(=O)CCCNC(=O)c1ccc(Cl)cc1 | 12.5%
Cl.c1ccc(CNCc2ccco2)cc1 | 15.1%
COc1ccc(/C=N/NC(=O)Cn2cc(C(F)(F)F)ccc2=O)cc1 | 0.763%
